# Results as given in the supplement of paper PMC11417369.
# This is one part of the list.
# Test system: PfAP2-HC AP2 domain (GST-tagged)
# Test: gcPBM binding intensity (ln(normalized median fluorescence intensity)); higher = stronger DNA binding
# Outline: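 Probes on an Agilent 4 × 180k array were primer-extended, double-stranded and 36 bp long, taken from intergenic genomic regions, with negative controls added. GST-tagged P. falciparum DNA-binding domains from E. coli, about 25 μg on average, were applied to the array for 1 h in 1× PBS containing 1% milk, 0.2 mg/ml BSA, 0.5% salmon testes DNA and 0.03% Triton X-100. Binding intensity, obtained after Alexa488 anti-GST antibody detection and a 488 nm scan, is the highest Masliner-normalised natural-log median intensity across replicate spots of either probe orientation.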
row,Sequence,gcPBM binding intensity (ln)
1,TATTTATAAATTTACACACACACATGTGAACATAAA [CACACA_site1909],10
2,ATTTTAAAAAATTAATGTACTTAATTAATACTGAAA [XGTACX_site7702],9.13
3,ATTTGTTCATTTGGTTGTACATAATTTATTTTTATA [XGTACX_site785],9.79
4,TTTTCATTTTTTTTTTTTTTTTTTTTTCTTTTTTTT [CACACA_negctrl_site1312],9.4
5,ATTTCTTTAATATACACACACCAAAACAAAAAAAAA [CACACA_site6416],10
6,AAAAACAATCATTTTAAATAAAAATCTCTAATTTAA [GTGCAC_negctrl_site138],9.4
7,ATATAGTTCGATATAGTTAGTATGAATTGAAAAATA [CACACA_negctrl_site1826],9.61
8,TTTTTAAAATATTTAACACACAATTTTAATGCATAA [CACACA_site6036],9.61
9,AAAAAAATAAAACACACACACAAAAAAATAAAAATA [CACACA_site465],10.8
10,GTTGTGTAATTCGTAACACACATAAAATATATATAA [CACACA_site6059],9.82
11,TTTTTTATTAAATATATATAATAATAATAATTTGTA [CACACA_negctrl_site1719],9.25
12,TATATTATATATTTATGTACGTATTTGTAAAAAGAT [XGTACX_site3444],9.56
13,TTTGTTTTATGTGGTTGTACACAAATACAATTTAAA [XGTACX_site5156],9.47
14,ATAATAATTATATCAGTGCGCATATATATTTATTTA,9.71
15,TCATAGCACAAAAAATGTACTTATTATTTAATATTT [XGTACX_site5687],9.55
16,ATGTGATAATTTAATAGTACATAACAGTTTAACAAT [XGTACX_site5854],10
17,CAAACAAATTGTGAAACACACATATTTATATTTATA [CACACA_site7030],9.6
18,TTATAAAATAAACTTACACACATGAAATATTATAGT [CACACA_site7000],9.75
19,TTTATATGCAATTAAGTGCATAAGAAAAAAAAAGGA [GTGCAC_site9966],9.64
20,CACTTAAAAAAAATACGTACACATATATATATATAT [XGTACX_site2054],9.77
21,TATCAGTATACAACAACACACATAATGTTTGTCATC [CACACA_site2980],9.92
22,CAAAAATAAATATAAACACACAATAAATAAATAAAT [CACACA_site891],10
23,ATTTAATAACGGCATGCATGTCCTTATATAAATTTA [TGCATGCA_site1012],9.52
24,TGAATTGTAATTTATAATATACGTGGTTTCTACTTA [CACACA_negctrl_site559],9.53
